Molecules are shown by their SMILES.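 Assay format: 96-well plates, 48-hour exposure. GI50 = concentration required for 50% inhibition of growth.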 Activity calls are given as the source filed them. Rule as the data show it: active = GI50 up to about 1.1 µM and inactive = higher.

The assay concerns NCI-H322M. In words: inhibition of tumour cell growth, NCI panel, 48 h.
As to `O=C1CC(=O)N(CCc2ccccc2)S(=O)(=O)N1CCc1ccccc1`, the GI50 is inactive: 30.7 µM. With `N#Cc1c(-c2ccc(Cl)cc2)c(-c2ccc(Cl)cc2)nn(CCOC(=O)CCC(=O)O)c1=O` the figure was active: 0.897 µM; with `Cc1cc(Br)cc(C)c1NC(=O)C(=O)C1C(=O)C(CC2C(=O)c3ccccc3C2=O)C(=O)CC1(C)C` (stereo unspecified), inactive: > 100 µM. On to `CCO/C=C/C(C)C1(C(=O)OCC)CCCCC1=O` (stereo unspecified), for which the GI50 was inactive: > 100 µM. With `COc1ccc(N[S+]([O-])c2ccc(OC)cc2)cc1` (stereo unspecified) the figure was inactive: 26.9 µM; with `CCOC(=O)c1cc2ncccc2c2ccccc12`, inactive: > 100 µM; with `[N-]=[N+]=NI1OC(C(F)(F)F)(C(F)(F)F)c2ccccc21`, inactive: 17.2 µM. For the compound `CCOC1OC(C)(C=C(C#N)C#N)CCC1C` (stereo unspecified), the GI50 is inactive: 67.3 µM. For the compound `O=C(Cc1ccccc1)NN1C(=O)C(Cl)C1c1ccccc1O` (stereo unspecified), the GI50 was inactive: 19.6 µM.

Regarding `CC(C)C(Nc1ncnc2nc[nH]c12)C(=O)O` (stereo unspecified), the GI50 is inactive: > 100 µM. With `COc1cc(/C=C2\N=C(c3ccccc3)N(c3nc4ccccc4s3)C2=O)cc(OC)c1OC` the figure was inactive: 31.3 µM; with `C=C1C(=O)O[C@@H]2[C@H]1C[C@H](I)[C@@]1(C)CC[C@H](O1)[C@](C)(I)CCCC(C)[C@@H]2O` (stereo partly specified), inactive: 15.9 µM; with `Cc1sc2nc3n(sc4nc5sc(C)c(C)c5c(=O)n43)c(=O)c2c1C`, inactive: > 100 µM. With `O=c1c2ccccc2nc2[nH][nH]c(=S)n12` the figure was inactive: > 100 µM; with `Cc1cn(C2CC(OC3CCCCO3)C(CO)O2)c(=O)[nH]c1=O` (stereo unspecified), inactive: > 100 µM.

As for `CCNc1c(C(=O)N(CC)CC)c(=O)[nH]c2ncccc12`, the GI50 is inactive: > 100 µM. With `CCOC(CNCCC(=O)OC)OCC` the figure was inactive: > 10 µM; with `O=C(O)CN1CCN(CC(=O)N2CCN(C(=O)OCc3ccccc3)CC2)CCN(CC(=O)O)CCN(CC(=O)N2CCN(C(=O)OCc3ccccc3)CC2)CC1`, inactive: > 100 µM.

Regarding `CC1=C(C(=O)Nc2ccccc2)C(c2ccccc2)C(C(=O)Nc2ccccc2)=C(C)N1`, the GI50 is inactive: 95.9 µM. With `O=C(O)c1ccc([N+](=O)[O-])c2cc3cnccc3nc12` the figure was inactive: 36.6 µM; with `N#Cc1nc(COCCOCc2ccc(F)cc2)oc1N`, inactive: > 100 µM; with `CC(=O)OCC1OC(OC2C(CSC3OC(COC(C)=O)C(OC(C)=O)C(OC(C)=O)C3OC(C)=O)OC(OC(C)=O)C(OC(C)=O)C2OC(C)=O)C(OC(C)=O)C(OC(C)=O)C1OC(C)=O` (stereo unspecified), inactive: > 100 µM. The result for `Cc1ccc(S(=O)(=O)NC(=O)C#CCOC2CCCCO2)cc1` (stereo unspecified) reads inactive: > 100 µM; that for `CO[C@]1(c2ccc([N+](=O)[O-])cc2)Oc2ccccc2C(=O)[C@@]1(Nc1ccc(C=O)cc1)OC`, inactive: > 10 µM; that for `O=C1CC(CC(=O)c2ccc(Br)cc2)C(O)=C1C(=O)c1ccc(Br)cc1` (stereo unspecified), inactive: > 100 µM. The result for `CCCCCCCCCCCc1cc(=O)c2c(O)cccc2o1` reads inactive: > 100 µM. As for `COc1cc([C@@H]2c3cc4c(cc3[C@@H](Nc3ccccc3C(=O)c3ccccc3)[C@H]3COC(=O)[C@H]23)OCO4)cc(OC)c1OC`, the GI50 was inactive: 1.97 µM. The result for `COC(=O)[C@@]12C3=NO[C@]1(C(=O)OC)C(O[Si](C)(C)C(C)(C)C)[C@H]1OC(C)(C)O[C@H]1[C@@H]2C(OCc1ccccc1)CC3` (stereo partly specified) reads inactive: 43 µM; that for `C=CC1(C)CCC2=C(CCC3C(C)(C(=O)OC)CCCC23C)C1=O` (stereo unspecified), inactive: 22 µM; that for `COC(=O)c1cnc(Cl)cn1`, inactive: 30.1 µM. The result for `Oc1cc(-c2ccc(F)cc2)nc2ncc(Cl)cc12` reads inactive: 25.1 µM.

The record behind these values is ChEMBL document CHEMBL1201862, “PubChem BioAssay data set” (2004).
